{
  "source": "patent US20090074815A1",
  "about": "“Immunomodulator Compounds as Vaccine Enhancers” (SCICLONE PHARMACEUTICALS, INC., priority 2005, published 2009)",
  "assay": "Indices of humoral immunity (CD20+, IgA, IgM, IgG, CH50, circulating immune complexes) before and after vaccination",
  "conditions": "patients treated with SCV-07 versus patients without immunomodulator and healthy patients",
  "protocol": "This group, which received SCV-07 and hepatitis B vaccine, included thirty-three (33) essentially healthy students from the Chelyabinsk State Medical Academy.\nThe hepatitis vaccine Engerix-B® produced by SmithKlineBeecham-Biomed (Russia) was administered as a course of 3 doses given at months 0, 1, and 6. Immunological examinations of the subjects were carried out before the first administration of the vaccine and at one month after completion of the course of immunization. All participants were seen by an allergologist-immunologist once during the first three months following vaccine administration. Subjects receiving SCV-07 were examined daily by the allergologist-immunologist. […]\nParticipants were evaluated to determine levels of leukocytes in peripheral blood, leukocytary formula, the presence of marker specific lymphocytes (CD3, CD4, CD8, CD16, CD95 and CD20), lysosomal activity of neutrophils; oxygen-dependent metabolism with spontaneous and induced hematocrit (HCT) tests, phagocytary function of neutrophils according to the latex particle absorption model; immunoglobulin IgA, IgM, IgG concentrations; total hemolytic activity of complement (CH50) in blood serum and for circulating immune complexes. Titers of antibodies to HBAg in the blood serum were determined by immunoenzyme analysis in paired sera using the test system of Vector-Best, Ltd., Novosibirsk, Russia. […]",
  "data": [
    {"compound": "N[C@H](CCC(=O)N[C@@H](Cc1c[nH]c2ccccc12)C(=O)O)C(=O)O", "note": "[SCV-07, γ-D-glutamyl-L-tryptophan]", "values": [
      {"measurement": "concentration of CD20+ lymphocytes and IgA, IgM and IgG in the blood", "value": "no significant difference"}
    ]}
  ]
}
